The values that follow come from the BET-seq Pho4 binding data (Le et al. 2018).

Some of the results follow. Values were computed here from the reads of four pooled replicates and scatter widely.

The assay has as its target T1, Pho4 (S. cerevisiae) (UniProt P07270).
T1 sequence: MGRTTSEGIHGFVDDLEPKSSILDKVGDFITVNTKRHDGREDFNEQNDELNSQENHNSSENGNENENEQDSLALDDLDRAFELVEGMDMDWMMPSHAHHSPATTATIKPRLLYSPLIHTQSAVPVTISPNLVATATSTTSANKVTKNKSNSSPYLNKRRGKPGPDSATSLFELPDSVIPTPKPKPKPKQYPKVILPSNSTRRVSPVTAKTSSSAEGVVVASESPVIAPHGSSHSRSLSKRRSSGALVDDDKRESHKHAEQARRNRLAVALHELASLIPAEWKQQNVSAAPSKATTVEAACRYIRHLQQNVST
The assay can be described thus: relative binding free energy (BET-seq); higher = weaker binding. Particulars: reference: library average.
Consider GTTGCCACGTGAGTGA, for which the “relative binding free energy” value came to 0.22 kcal/mol. Next, CTGGGCACGTGAAGTT: 0.26 kcal/mol. For the sequence TGGAGCACGTGTATAA, the “relative binding free energy” value was -0.07 kcal/mol.

As to AATTGCACGTGGGGGC, the “relative binding free energy” value was -0.22 kcal/mol.

In the case of TGGCACACGTGTTAGG, the “relative binding free energy” value was -0.01 kcal/mol. Turning to GTTATCACGTGGATGG, the “relative binding free energy” value came out at 0.1 kcal/mol. In the case of TGGCTCACGTGTATGT, the “relative binding free energy” value stood at 0.18 kcal/mol. In the case of GGGGACACGTGAGTTT, the “relative binding free energy” value worked out at 0.31 kcal/mol. The same measure for CATGTCACGTGGTCGG: -0.07 kcal/mol; for GGCGGCACGTGGTTTC: 0.03 kcal/mol; for GATGACACGTGATTGT: 0.17 kcal/mol.

Take GAGGTCACGTGGAATT: the “relative binding free energy” value came to 0.42 kcal/mol. TTGGTCACGTGTGTTT: the “relative binding free energy” value came to 0.2 kcal/mol. For TTAGTCACGTGCGAGG, the “relative binding free energy” value stood at 0.12 kcal/mol. Turning to GGCGGCACGTGTGTAA, the “relative binding free energy” value came out at 0.03 kcal/mol. AAGTACACGTGAGGGG: the “relative binding free energy” value was 0.31 kcal/mol.

Regarding TATAGCACGTGATGAG, the “relative binding free energy” value is -0.13 kcal/mol. TAGTGCACGTGCGGGC: the “relative binding free energy” value was -0.21 kcal/mol. Regarding TGGGACACGTGATAAG, the “relative binding free energy” value was found to be 0.21 kcal/mol. Next, AAAATCACGTGGGTAT: 0.07 kcal/mol. The same measure for GCTTGCACGTGGGGCA: -0.15 kcal/mol; for GGTTGCACGTGTGCGC: -0.01 kcal/mol; for AAGGGCACGTGCGGTG: -0.24 kcal/mol. For the sequence GCTGTCACGTGGCGGT, the “relative binding free energy” value was -0.03 kcal/mol.

Consider GTTTTCACGTGCGGAT, for which the “relative binding free energy” value turned out to be 0.39 kcal/mol. Next, TGTCACACGTGATGGG: 0.18 kcal/mol; AATGTCACGTGAATGG: 0.35 kcal/mol; ATTGTCACGTGGGCTA: -0.12 kcal/mol. The same measure for GTGTTCACGTGTATGT: 0.29 kcal/mol; for GGTCTCACGTGTAGGG: 0.21 kcal/mol; for TATGACACGTGTACGA: 0.21 kcal/mol. Next, TTAATCACGTGATAGT: 0.29 kcal/mol; GTTGACACGTGGGTGT: -0.09 kcal/mol. With AAATTCACGTGTGATA, the “relative binding free energy” value amounted to 0.26 kcal/mol.

As to ATGTGCACGTGGGTCG, the “relative binding free energy” value was -0.19 kcal/mol. As to TATATCACGTGAAGTG, the “relative binding free energy” value is 0.26 kcal/mol. In the case of TGTTGCACGTGGTGAC, the “relative binding free energy” value is -0.05 kcal/mol. In the case of AAGTCCACGTGGGTAT, the “relative binding free energy” value stood at 0 kcal/mol. The same measure for CTCGGCACGTGTGCGT: -0.09 kcal/mol; for TACATCACGTGTTGAG: 0.22 kcal/mol; for TTGGGCACGTGTTATA: 0.01 kcal/mol. The same measure for AGGCGCACGTGCGGAG: -0.13 kcal/mol; for GTGCGCACGTGCCGTG: -0.06 kcal/mol; for TTCAACACGTGGGAGG: -0.03 kcal/mol. Regarding AGTGGCACGTGTGTTT, the “relative binding free energy” value was determined as 0.01 kcal/mol. As to AGTGACACGTGGTCGT, the “relative binding free energy” value is -0.1 kcal/mol. For AGGACCACGTGTAGGG, the “relative binding free energy” value is -0.07 kcal/mol. Next, AGAAGCACGTGTAGTA: -0.01 kcal/mol. The same measure for TGTCACACGTGTCGTG: 0 kcal/mol. With AAGGTCACGTGTCGCT, the “relative binding free energy” value was found to be 0.15 kcal/mol. Next, CTGTGCACGTGTGAGT: 0.03 kcal/mol; TAGGCCACGTGTAAGG: 0.04 kcal/mol. TGTCCCACGTGTTGTG: the “relative binding free energy” value worked out at 0 kcal/mol.

TAGGGCACGTGTCGGT: the “relative binding free energy” value is -0.12 kcal/mol. AGGAGCACGTGGTATA: the “relative binding free energy” value was -0.12 kcal/mol. Next, GAGGTCACGTGCGTAT: 0.07 kcal/mol; AGGGACACGTGTGTGC: 0.02 kcal/mol. In the case of CAGTTCACGTGGGAGG, the “relative binding free energy” value is 0.23 kcal/mol. On to TGAGGCACGTGCGGGC, for which the “relative binding free energy” value was -0.27 kcal/mol. Take GTTATCACGTGAGTGC: the “relative binding free energy” value stood at 0.24 kcal/mol. Next, GGGTCCACGTGGCGGG: -0.06 kcal/mol; ATTGGCACGTGGACTG: -0.17 kcal/mol. Next, TACGCCACGTGGTGTG: -0.14 kcal/mol; GAGATCACGTGGTGTA: 0.17 kcal/mol. Turning to CTTTTCACGTGGAGTC, the “relative binding free energy” value came out at 0.38 kcal/mol. Next, GGTCTCACGTGGCGGG: 0.22 kcal/mol. Turning to TTTAACACGTGTTAAT, the “relative binding free energy” value was determined as 0 kcal/mol.

As to ATATTCACGTGTGGGA, the “relative binding free energy” value is 0.12 kcal/mol.

Regarding TGGTTCACGTGGGCTG, the “relative binding free energy” value stood at 0.23 kcal/mol.

For TGCTTCACGTGGGTTA, the “relative binding free energy” value was 0.2 kcal/mol. Next, GGGCGCACGTGGGAAT: -0.03 kcal/mol; AGAGTCACGTGTTACG: 0.15 kcal/mol; TAGGGCACGTGGGGCC: -0.22 kcal/mol.
